Source: PubChem BioAssay AID1508624 (National Center for Advancing Translational Sciences (NCATS), 2021)
Screen size: about 48,000 compounds; about 120 (0.25%) were called active. Not shown: some 4% with an inconclusive outcome. Calls follow the shape of the dose curve; as a rule, active = well fitted activation curve with a large enough effect; inconclusive = small, poorly fitted or top-dose-only effect, or another doubt; inactive = no such curve, though single readings can be large or run the other way. Some of the results follow.

Experiment: Primary qHTS for Identification of Small Molecule Activators of Huntingtin-Antisense Promoter Activity; also: nearly all actives have a fitted effect of over 55% in size
Conditions: HEK293 HTT-AS promoter firefly luciferase reporter (activity 0% = vehicle and -100% = no light), 24 h; series mostly up to 57.5 µM; activity change, positive = activation: at the top concentration
Procedure, shortened: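 HEK293 cells carrying firefly luciferase reporters were seeded at 2,500 per well in Opti-MEM and cultured for 24 h. They were then treated with compounds at up to 57.5 uM final for 24 h at 37 degrees C before Dual-Glo luminescence readout.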

Activity change, positive = activation, inactive:
Cc1ccc(CNC(=O)c2cc3c(=O)oc4ccc(C)cc4c3s2)cc1 -8.97%
CCCNC(=O)Cn1nc(-c2ccc(C)c(C)c2)c2cnc3ccc(OC)cc3c21 -25.5%
CN1CCc2cccc3c2[C@H]1Cc1ccc(O)c(O)c1-3 -1.62%
C[C@H](NC(=O)Cc1cc(F)cc(F)c1)C(=O)N[C@H](C(=O)OC(C)(C)C)c1ccccc1 -12.3%
COc1ccccc1NC(=O)Cn1cnc2ccc(S(=O)(=O)N3CCC(C)CC3)cc2c1=O -18.5%
COc1ccc2oc(=O)c(C(=O)NCCc3c(C)[nH]c4ccc(C)cc34)cc2c1 -28.1%
CN(C)c1ccc(O)c2c1C[C@H]1C[C@H]3[C@H](N(C)C)C(=O)C(C(N)=O)=C(O)[C@@]3(O)C(=O)C1=C2O
Cc1ccc(NC(=O)C2CCCN(C(=O)c3cnn(-c4ccccc4)c3-n3cccc3)C2)cc1 (stereo not given) -38%
COc1ccc(NC(=O)Cn2c(=O)n(Cc3ccco3)c(=O)c3sc4ccccc4c32)c(OC)c1 -24.8%
Cc1cc(OCC(=O)N(Cc2ccc(N(C)C)cc2)Cc2ccco2)cc(C)c1Cl -35.2%
CCOC(=O)c1ccc(OC(=O)c2cn(-c3ccc(C)cc3)c(=O)c3ccccc23)cc1 -21.1%
Cc1nn(-c2ccccc2)c(-n2cccc2)c1C(=O)N1CCN(c2ccccc2)CC1 -21%
COc1ccc(CNC(=O)c2cc3sccc3n2Cc2ccc(F)cc2)cc1 -30%
COCCCN1C(=O)c2[nH]nc(-c3cc(C)ccc3O)c2C1c1ccc(F)cc1 (stereo not given) -21.3%
Cc1ccccc1NC(=O)C(Cc1ccccc1)N1Cc2ccccc2C1=O (stereo not given) -1.02%
COc1ccc(CNCCC(c2ccc(C)cc2)c2ccco2)cc1 (stereo not given) -24.8%
Cc1cccc(OCC(=O)Nc2ccc(S(=O)(=O)Nc3onc(C)c3C)cc2)c1C -15.3%
CC(C)CCSc1nnc2n(-c3ccccc3)c(=O)c3c4c(sc3n12)CC(C)CC4 (stereo not given) -24.2%
CCOC(=O)c1c(C)[nH]c(C)c1S(=O)(=O)NCC(=O)NCc1cccc(Br)c1 -8.7%
Cc1cc(C)nc(-n2nc(C)c3c2N(Cc2ccccc2C)C(=O)CC3c2ccc(Cl)cc2)n1 (stereo not given) -20.9%
COC(=O)c1ccccc1N(C)S(=O)(=O)c1cc2c3c(c1)CC(=O)N3CCC2 -9.08%
CCc1ccc(NC(=O)Cn2c(=O)nc(-c3ccccc3F)c3cc(Cl)ccc32)cc1 22.9%
O=C(Nc1ccc(Oc2ccccc2)cc1)c1ccc(F)c(S(=O)(=O)N2CCN(c3ccccc3F)CC2)c1 -44.4%
Cc1ccc2cc3cc(C(=O)N4CCN(c5ccccc5)CC4)sc3nc2c1 16%
COc1cccc(NC(=O)/C(C#N)=C/c2ccc(-c3ccc(C)cc3)o2)c1 -20.9%
O=C(Cn1cc(S(=O)(=O)Cc2cccc(Cl)c2)c2ccccc21)NCc1ccccc1Cl -34%
COc1ccc(C(=O)NCc2nc(-c3cccc(C)c3)no2)cc1OC -26.5%
COc1cccc(C(=O)COC(=O)c2cc(-c3cccs3)nc3ccccc23)c1 -15.6%
Cc1cc(NS(=O)(=O)c2cn(C)c(C)n2)ccc1Br 7.43%
COc1cccc(CNC(=O)CCc2c(C)nc3c4c(C)cc(C)nc4nn3c2C)c1 -11.4%
Cc1ccccc1OCC(=O)Nc1nnc(SCc2cc(=O)n3cc(Cl)ccc3n2)s1 -2.83%
Cc1ccc(C)c(CN2C(=O)c3ccccc3S(=O)(=O)c3ccc(C(=O)NCCc4ccc(Cl)cc4)cc32)c1 -23.5%
CCc1ccccc1NC(=O)C1CCN(c2nc3ccccc3[nH]2)CC1 -4.73%
Cc1ccc(CCNc2nc3ccccc3c3nc(-c4cccnc4)nn23)cc1 -8.73%
Cc1ccc(NC(=O)c2cccc(NC(=O)N3CCSc4ncccc43)c2)cc1F 9.77%
CCOc1ccc(CNC(=O)c2ccc(NC(=O)N3CCSc4ncccc43)cc2)cc1 -9.55%
CCCN1C(=O)c2oc3cc(C)cc(C)c3c(=O)c2C1c1ccc(F)cc1 (stereo not given) -10.9%
CCN(CC)CCCNC(=O)CCc1c(C)nc2c(c1C)c(=O)n(C)c(=O)n2C -11.8%
Cc1ccc(C)c(NC(=O)c2cnc3sc(N4CCOCC4)nn3c2=O)c1 -2.97%
COc1ccc(-c2cc(C(F)(F)F)nc(SCC(=O)Nc3ccc(O)cc3)n2)cc1OC -9.23%
CCCCOCCOC(=O)c1cccnc1 -0.142%
Cc1cc(=O)c2cc(C(=O)Nc3cccc(C)c3C)ccc2[nH]1 -27.6%
C[C@H](NC(=O)[C@@H](O)c1cc(F)cc(F)c1)C(=O)N[C@@H]1C(=O)N(C)c2ccccc2-c2ccccc21 -5.83%
CCCNc1ncnc2c1c(-c1ccccc1)cn2-c1ccccc1 -20.8%
CCS(=O)(=O)Nc1ccc2[nH]c(O)c(C(=Nc3ccc(CN4CCCCC4)cc3)c3ccccc3)c2c1 -38.7%
CCn1cc(C(=O)N2CCN(c3cccc(C)c3)C(C)C2)c(=O)c2cc(S(=O)(=O)N3CCOCC3)ccc21 (stereo not given) -1.06%
COc1ccc(-c2nsc(NC(=O)c3oc4ccccc4c3C)n2)cc1 -16.5%
Cc1coc2c(C)c3oc(=O)c(CCC(=O)N4CCCCC4)c(C)c3cc12 -29.5%
O=C(Cn1ccc2cc(S(=O)(=O)N3CCCCCC3)ccc21)NCc1cccc(Cl)c1 -30.6%
CN(C)c1ccc(CNC(=O)CCCN2C(=O)CCn3nc(-c4cn(C)c5ccccc45)cc32)cc1 -16.3%
C[C@]12CC[C@@H]3c4ccc(O)cc4CC[C@H]3[C@@H]1CC[C@@H]2OC(=O)CCC1CCCC1 2.2%
CCCN1CCN(CCCNC(=O)c2cc3c(s2)-c2ccccc2OC3)CC1 -16%
COCCn1c(C)cc(O)c(C(c2ccccc2Cl)N2CCCCC2)c1=O (stereo not given) -4.33%
Cc1c(NS(=O)(=O)c2ccc(Cl)cc2)c(=O)n(-c2ccccc2)n1C 1.3%
Cc1nc2c(c(C)c1CCC(=O)Nc1ccc(F)cc1)c(=O)n(C)c(=O)n2C -3.29%
COc1ccc(C2=NN(CCC(=O)NCCc3ccccc3)C(=O)CC2)cc1 -7.69%
COc1ccccc1CCNC(=O)C(=O)NCC(c1cccnc1)N1CCN(c2ccccc2)CC1 (stereo not given) -43.8%
COCCn1c(C)cc(O)c(C(c2ccccc2F)N2CCN(c3ccccc3)CC2)c1=O (stereo not given) -1.46%
CCc1cccc(-n2nnc(S(=O)(=O)c3ccc(OC)cc3)c2C)c1 -33.6%
Cc1ccc(Cn2cc(CCC(=O)NCC(C)c3ccccc3)c3ccccc32)cc1 (stereo not given) -36.7%
